22 molecules from paper PMC12136788 can be followed below.

First the molecules themselves.
T1: UNK ZnF1-3 (human, UniProt Q9C0B0 31-174)
T1 sequence: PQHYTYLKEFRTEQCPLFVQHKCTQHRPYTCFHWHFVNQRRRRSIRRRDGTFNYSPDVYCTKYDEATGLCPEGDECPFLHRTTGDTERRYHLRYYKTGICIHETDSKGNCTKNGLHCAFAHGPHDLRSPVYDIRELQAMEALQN

B1: 154959545_154962785_857_3pUTR_ENSMUSG00000042751_ENSMUST00000043313|mouse|control|control (ssRNA)
RNA: GGGAGUUCUACAGUCCGACGAUCGAUGUACAGCUGACUCUUGAGGAUGUAAUCGAUGACUGGCUGGGACAGGUAAUCCACAACAUGGCCGUCCCCAUGCUGCAGGGCCAGCCUGCUCUUGGUGGAGCUGACUACAGACAUGGGCAACAGAGGAUUGAGCAUCA
B2: chr2:69705335:69705336:+_ENSMUSG00000068882_ENSMUST00000090852|mus_hu|FALSE|FALSE (ssRNA)
RNA: GGGAGUUCUACAGUCCGACGAUCUUGACCUUUAUCUUCUAACCAUUCUUUUAUGUCAUCAAGAGUUGCAUCAGUUGGGAAGCCUUUAAUAUAAACAGAUCUGUUUUUUACAUCAUUUUUAUACUCAUCAGUCACUUCAGGUAGCAACAGAGGAUUGAGCAUCA
B3: chrX:71549400:71549401:+_ENSMUSG00000019087_ENSMUST00000019231|mus_mus|FALSE|FALSE (ssRNA)
RNA: GGGAGUUCUACAGUCCGACGAUCAGUAGGAAGAGGACAAACCUUUCCAUCCACUGUGUCACAAAACAGAAACAUGACAACCUAGACACCAAUACUCCCUCAAUUCCUCUCAGGUGUAUGUCACACAAUCUGGGUCAAAGUGAUCAACAGAGGAUUGAGCAUCA
B4: 62134705_62139040_4542_CDS_ENSMUSG00000018501_ENSMUST00000155712|mouse|control|control (ssRNA)
RNA: GGGAGUUCUACAGUCCGACGAUCUGAGCUCACUGCACCUGAUGUGGUAACUGCUGGCAGAUUGAAGAUCUCUGUUCCUGGCUGAGCAGCUGCCAUAUCAGAGUCACCUCCACCAGAAGAGUUCAACUUACGAAAAAUUUCCUGCAACAGAGGAUUGAGCAUCA
B5: chr3:123074269:123074270:-_ENSMUSG00000028114_ENSMUST00000029759|perfect_dup|FALSE|FALSE (ssRNA)
RNA: GGGAGUUCUACAGUCCGACGAUCGCGUCUUCUACCAAGACAAAAAUGUUCUAUUAUAUGAAAAAUUUCUACUGGUUUUUCUAUAUUGCCAAUCUCAGGUUCUUCUGUGAUAAUUAAGUCAAUGUCAACAUUAGCAUGAAUGAACAACAGAGGAUUGAGCAUCA
B6: 124406771_124406891_1735_3pUTR_ENSMUSG00000040010_ENSMUST00000045557|mouse|control|control (ssRNA)
RNA: GGGAGUUCUACAGUCCGACGAUCAGUUUUCUUUCACAGCCACUGUGGACACCUGACGUUUGAGGGACAGUGGAUUGUGUUAGGCGGCUGGUGGUGCUCACUGGAGCUGUGGGGCUGACAGGCCUGGCCGCUGAUCUUCCAAAGCAACAGAGGAUUGAGCAUCA
B7: 95749731_95749851_1752_3pUTR_ENSMUSG00000015749_ENSMUST00000165307|mouse|control|control (ssRNA)
RNA: GGGAGUUCUACAGUCCGACGAUCUGGCACGGCCACCCAGAGACCGCUCCACGGCAAGUCUGGCCUUAGAAAGGGACAGGCUCCUUAAAGGGCCCUGAACUGUCACUGAGCAGAACUGAGUCCAUGACCUGCCUCUGAAGAGAACAACAGAGGAUUGAGCAUCA
B8: chr10:35314101:35314102:-_ENSG00000108094_ENST00000537177|hu_mus|FALSE|FALSE (ssRNA)
RNA: GGGAGUUCUACAGUCCGACGAUCUUCACCUGUACAGAGAUAAUGCAACCAUGUCAGCUUCCGUCCACUGAAAUGCUGGCUAUAAAACAAUUCAAACAUCUGUACACUUUUCUCUAGCUCUUGGGGAAUUGCAAAUGUAGAUGACAACAGAGGAUUGAGCAUCA
B9: 120978192_120978312_3978_3pUTR_ENSG00000164109_ENST00000296509|human|control|control (ssRNA)
RNA: GGGAGUUCUACAGUCCGACGAUCGUGAUCUGUUACAGGACUGGUAAGCUACAACCCUGGGGCCGAAGCAAACAGCCAUGUUUUUUUCUUAUUGGAACACACUCACGCUCAUUCAUUUAUGUAUUGUCUAUAGCUGCUUUCAGCCAACAGAGGAUUGAGCAUCA
B10: chr14:57341393:57341394:-_ENSMUSG00000021938_ENSMUST00000022507|mus_mus|FALSE|FALSE (ssRNA)
RNA: GGGAGUUCUACAGUCCGACGAUCUAUGAAUAGUGAGACUCUAUAUGAAAUGUAAGCAACAACUCUAACUUACACAGGAUCUAUGGUUUAUACAAUCUUAACCCCCAUGCCUCCCACCCACUAGUAUACUACAGUAUGUGUCCCCAACAGAGGAUUGAGCAUCA
B11: 183601471_183601784_1791_CDS_ENSG00000218336_ENST00000511685|human|control|control (ssRNA)
RNA: GGGAGUUCUACAGUCCGACGAUCAUCACACUCGGUGCCCUUCCAGCCGCUGAAACACAGGCAGCGGCCCUUGGAGUACUGCCCGUUGCCACUACAUAACACUGGACAGGCGGCUCUUGAACAAUCCGGACCCAGAAAUCCUGGCAACAGAGGAUUGAGCAUCA
B12: 77829102_77831656_1509_CDS_ENSMUSG00000037791_ENSMUST00000049167|mouse|control|control (ssRNA)
RNA: GGGAGUUCUACAGUCCGACGAUCAUCUACUUUGACAACAUGUUGUGAAAUGGUGUCCUGGAACCGAUCAAACACCUGGCACCGAUUGCUCAGAGUCAGGUUCUUCUGGUUCAGCACCACAUGUUCGAUGUGAUUCGGACACAUCAACAGAGGAUUGAGCAUCA
B13: chr2:179988524:179988525:-_ENSG00000187231_ENST00000428443|hu_hu|FALSE|FALSE (ssRNA)
RNA: GGGAGUUCUACAGUCCGACGAUCUAAAGUUUGCUGAAUCGAUGCUCCAUCAGCUGGUGCUACAUCUACGCACAACAUCCCUAAUAAGCCAUCCAACUGCUGAGACAAAUCUUGGGCAACACCAUGAAAUUCAAGAGCUGCUUGCAACAGAGGAUUGAGCAUCA
B14: chr2:32989838:32989839:-_ENSMUSG00000038831_ENSMUST00000042615|mus_mus|FALSE|FALSE (ssRNA)
RNA: GGGAGUUCUACAGUCCGACGAUCCAUUUCCAUUCAAUCUGGUCUUCCUGGAAGAACCAAUGCACACGAUUGUAUUCAGGAGUAGGGGAGAGAUAGGGUCUUGCCAAAGUUGGCUUGUGAGGUGGUAAUUAUUUGGUCAUUGACCAACAGAGGAUUGAGCAUCA
B15: 99997043_99997940_968_CDS_ENSMUSG00000021012_ENSMUST00000110105|mouse|control|control (ssRNA)
RNA: GGGAGUUCUACAGUCCGACGAUCAAAGUUUUCGUCCUCAAUACUCAUUUUAUCCAAGUUGUUUCUGAAGAAGGGGCUAUAAGUGUCUUCUACGCUGCUAAGCACUGGUGGCUCACACAACCGUCCUGCUUCGGAUACCUGGCUCAACAGAGGAUUGAGCAUCA
B16: 52701090_52703304_1850_CDS_ENSMUSG00000004535_ENSMUST00000080723|mouse|control|control (ssRNA)
RNA: GGGAGUUCUACAGUCCGACGAUCCUGAACUUUGUAGUUAUCCUCUACUUCAGCUAGUUCAAGUUUUACAUUUUCAGCAAUUUUCACUUGUUCUUUCCACUUCAGCUCCAUUUUGGCAAGUUCUUCAGCGUAUUUAUUGCACUUCAACAGAGGAUUGAGCAUCA
B17: chr7:155493584:155493585:+_ENSG00000184863_ENST00000401878|hu_mus|motif|central (ssRNA)
RNA: GGGAGUUCUACAGUCCGACGAUCAGAAAGUUCCAAAGUUUCUGGAAUGUUCCUUCUCUCUCUAGUUACAUCUGAAAGCCGGAUAAUUGUUCCUUCUUUCCUUUCAGUUUUAAAACGUAAUCGUCCAGAUUCUUCAUCAUCAUCCAACAGAGGAUUGAGCAUCA
B18: chr1:39494564:39494565:+_ENSG00000168653_ENST00000372967|hu_hu|hu_hu_hu_mus_True|1_98 (ssRNA)
RNA: GGGAGUUCUACAGUCCGACGAUCAUGCAUUCGCCUCAUCGUUUUCUACCGAAGCAAGCACUCUUCGAAGUCAUCGAACUCUAUCUUGCACUCCUUUUUCGCCCGGGUCCCACCGAUCCCGUGUGCACACUCUAUCCAUUCUUUCAACAGAGGAUUGAGCAUCA
B19: 204520434_204520554_3319_3pUTR_ENSG00000198625_ENST00000367182|human|control|control (ssRNA)
RNA: GGGAGUUCUACAGUCCGACGAUCUAUUGCCUUGGUGUAAGCAGCUCCAGAGGCACUAAACAAAAGGAUCAAAAAAAAUCUAAAUGACUCCUAAGACGCAAAGAGGGUAGGGGGCAGUAGCUCAGGACUGCAAUCCUAGCACUUCAACAGAGGAUUGAGCAUCA
B20: chr22:32879901:32879902:+_ENSG00000100225_ENST00000397426|hu_mus|hu_hu_hu_mus_False|1_98 (ssRNA)
RNA: GGGAGUUCUACAGUCCGACGAUCCUCUUCCAUACUCGCAUUAUCUUGAAUUGACUCAGCUUCAACAUUUUGACUAGGCCCUUCCAUACUGUCAUCAGUCCAGGCAUCAAAUGGGGUGGCCUGUCCUUGGGAUGAAUCACUUGGCAACAGAGGAUUGAGCAUCA
B21: chr19:6374144:6374145:+_ENSMUSG00000024949_ENSMUST00000113487|mus_mus|FALSE|FALSE (ssRNA)
RNA: GGGAGUUCUACAGUCCGACGAUCUGGUCCAUUUGGGUUGUGCUGCAUGGGAUGCCCACCAUGCCCACCUGUCAGGCUGGGUAAUGGGUGUGGGAAGCUGUGGGGGCCACCUCCAGGACCACCAGGACCACCUCCAUGCAUGCCCAACAGAGGAUUGAGCAUCA
B22: chr12:73045124:73045125:+_ENSMUSG00000034574_ENSMUST00000085299|mus_hu|FALSE|FALSE (ssRNA)
RNA: GGGAGUUCUACAGUCCGACGAUCGCCUUGAGAGUUGUUCAUUAACGCCUUUAUACAGCCAAUGAGAGAAGUAUGUAUUCGAGACUCUGAGGUCUCGUAGUCCAUGGUCUUUAGAAAGUUGAGGAUACAUGAUAGGCCAUCCAACAACAGAGGAUUGAGCAUCA

The list shows a part of the results.

The assay concerns the target T1, UNK ZnF1-3. Nature of the assay: nsRBNS (natural sequence RNA bind-n-seq); RBNS binding buffer (assumed for nsRBNS): 25 mM Tris pH 7.5, 150 mM KCl, 3 mM MgCl2, 0.01% Triton X-100, 500 ug/ml BSA, 20 U/ml SUPERase-In, 4 C; UNK is unkempt and MSI1 is Musashi-1; names of the RNAs are library labels; protein concentration not given here; high values mean tight binding.
Molecule B1 showed a binding signal of 0.904 enrichment R.

The molecule B2 yielded a binding signal of 1.11 enrichment R.

Regarding B3, the binding signal amounted to 1.14 enrichment R.

In the case of B4, the binding signal amounted to 0.794 enrichment R.

In turn, B5 registered a binding signal of 1.05 enrichment R.

B6 gave a binding signal of 1.07 enrichment R.

Turning to B7, the binding signal was 0.813 enrichment R.

For B8, the binding signal is 1.14 enrichment R.

Turning to B9, the binding signal stood at 0.779 enrichment R.

B10 had a binding signal of 1.4 enrichment R.

With B11, the binding signal amounted to 0.725 enrichment R.

The molecule B12 registered a binding signal of 0.273 enrichment R.

B13: the binding signal was 1.2 enrichment R.

For the molecule B14, the binding signal was 1.42 enrichment R.

In turn, B15 returned a binding signal of 0.661 enrichment R.

The molecule B16 came in with a binding signal of 0.311 enrichment R.

Regarding B17, the binding signal stood at 0.78 enrichment R.

Turning to B18, the binding signal stood at 0.798 enrichment R.

In turn, B19 yielded a binding signal of 1.64 enrichment R.

B20 gave a binding signal of 0.9 enrichment R.

B21 gave a binding signal of 0.674 enrichment R.

The molecule B22 displayed a binding signal of 0.699 enrichment R.
